# From PubChem BioAssay AID651820 (National Center for Advancing Translational Sciences (NCATS), 2012)
# The campaign covered roughly 340,000 compounds. About 12,000 (3.5%) were called active. Inconclusive results, whose numbers are uncertain, are shown with a selection of clear calls. The call rests on the fitted dose curve; in most records, active means well fitted inhibition curve with a large enough effect; inconclusive means small, poorly fitted or top-dose-only effect, or another doubt; inactive means no such curve, though single readings can be large or run the other way. No potency is given beside an inconclusive call; the fits are too rough.
# Assay: qHTS Assay for Inhibitors of Hepatitis C Virus (HCV)
# Conditions: Huh7.5.1 HCVcc-Cre (HCVcc is cell-culture hepatitis C virus) infection, luciferase reporter, 44 h; activity change, negative = inhibition: at 41.8 µM (top of the series)
# Outline: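 Infectious HCVcc-Cre (~0.5 moi) was added to cells just after compound, with cells seeded 4 h earlier at 1,000 per well. Luciferase activity after 44 h culture reported infection; substrate was incubated 15 min at room temperature before reading.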
# On the % scale 0 is the no-effect control and ±100 the full control effect; potency means the concentration at half of the fitted maximal effect; tags describe the fitted curve by direction and shape.
Compound,Potency,"activity change, negative = inhibition"
COc1cc(C)c(NC(=O)C(=S)NCCc2ccccc2)cc1C,"inconclusive [inhibitor, single point]",
Cc1ccc(/C=C/S(=O)(=O)NCC(=O)OCC(=O)Nc2c(F)cccc2F)cc1,"inconclusive [inhibitor, single point]",
Cn1c(C=O)c(-c2ccc3c(c2)OCCO3)c2ccccc21,active: 15.8 µM,
COc1ccc(S(=O)(=O)n2nc(OC(=O)c3cccs3)cc2N)cc1,,inactive: 0.642%
Nc1nc(Cl)nc2c1ncn2[C@H]1C[C@H](O)[C@@H](CO)O1,"inconclusive [inhibitor, single point]",
Cc1cc(C(=O)Cn2nc(C(=O)O)c3ccccc3c2=O)c(C)n1-c1ccccc1,"inconclusive [inhibitor, single point]",
CC(NC(=O)COC(=O)c1cc(=O)c2ccccc2o1)c1ccccc1 (stereo not given),,inactive: 10.1%
CC(Oc1ccc(F)cc1)C(=O)Nc1cc(C(F)(F)F)ccc1-n1cncn1 (stereo not given),"inconclusive [inhibitor, single point]",
Cc1ccc(NC(=O)c2cc(S(=O)(=O)N3CCOCC3)ccc2F)c(C)c1,,inactive: -23.4%
CCOC(=O)CSc1nc(C)cc(C)c1C#N,"inconclusive [inhibitor, partial curve]",
CC(C)Oc1ccc2c(c1)OC(c1ccccc1)(C(F)(F)F)NC2=O (stereo not given),,inactive: -4.3%
COc1ccc(C(=O)C2CCCN(C3Cc4ccccc4C3)C2)c(OC)c1 (stereo not given),"inconclusive [inhibitor, single point]",
Cc1ccc2c(c1)N(C(=O)CCC(=O)NCCCN1CCN(C)CC1)CC(C)O2 (stereo not given),,inactive: 16%
COc1cc(OC)cc(-c2c(-c3cccs3)c3cc(-c4cccc5[nH]ccc45)ccc3n2C)c1,"inconclusive [inhibitor, partial curve]",
O=C(NCc1ccco1)Nc1cccc([N+](=O)[O-])c1,,inactive: -7.77%
O=C(NCc1ccccc1)C1(c2ccccc2)CCN(S(=O)(=O)c2ccccc2)CC1,"inconclusive [inhibitor, partial curve]",
O=C1CN(C(=O)NCC(=O)N[C@@H](C(=O)O)c2ccccc2)c2ccccc2N1,,inactive: -19.9%
Cc1cccc(CN2CCCC(C(=O)c3ccc(C(F)(F)F)cc3)C2)n1 (stereo not given),"inconclusive [inhibitor, single point]",
O=C1N[C@H]2CC=C[C@H]2N(Cc2cccs2)c2ccccc21,"inconclusive [inhibitor, single point]",
C=CCN(c1ccc(C(=O)NCCSc2ccccc2)cc1)S(C)(=O)=O,,inactive: -12.9%
